Data published in paper PMC8382200.
These are yes or no findings as the source states them, for the method shown. In cells and extracts the contact can be indirect. Some entries that bind do so weakly or less than the wild type.

By UniProt entry, the sequences of proteins in these tests, tags left out. Where a name states a change or a piece, a line headed by the entry shows the natural chain unless it says otherwise. Residues count along the entry.
UniProt P35240: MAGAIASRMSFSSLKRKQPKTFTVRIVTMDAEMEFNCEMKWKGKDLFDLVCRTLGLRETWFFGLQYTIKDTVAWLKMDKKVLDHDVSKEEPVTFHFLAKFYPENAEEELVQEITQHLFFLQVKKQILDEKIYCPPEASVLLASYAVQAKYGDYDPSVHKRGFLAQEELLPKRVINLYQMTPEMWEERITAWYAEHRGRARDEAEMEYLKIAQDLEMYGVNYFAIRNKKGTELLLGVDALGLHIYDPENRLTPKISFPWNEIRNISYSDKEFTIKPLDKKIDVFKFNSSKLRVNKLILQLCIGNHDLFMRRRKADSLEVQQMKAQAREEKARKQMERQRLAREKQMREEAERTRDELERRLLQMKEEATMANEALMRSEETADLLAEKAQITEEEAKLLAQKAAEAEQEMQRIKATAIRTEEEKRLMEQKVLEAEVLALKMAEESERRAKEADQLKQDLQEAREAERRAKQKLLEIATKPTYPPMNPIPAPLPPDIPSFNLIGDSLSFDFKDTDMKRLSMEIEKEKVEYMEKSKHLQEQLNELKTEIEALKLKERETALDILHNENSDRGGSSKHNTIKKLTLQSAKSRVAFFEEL
recombinant GST-Merlin FERM domain: residues 22-311 of P35240
UniProt P26038: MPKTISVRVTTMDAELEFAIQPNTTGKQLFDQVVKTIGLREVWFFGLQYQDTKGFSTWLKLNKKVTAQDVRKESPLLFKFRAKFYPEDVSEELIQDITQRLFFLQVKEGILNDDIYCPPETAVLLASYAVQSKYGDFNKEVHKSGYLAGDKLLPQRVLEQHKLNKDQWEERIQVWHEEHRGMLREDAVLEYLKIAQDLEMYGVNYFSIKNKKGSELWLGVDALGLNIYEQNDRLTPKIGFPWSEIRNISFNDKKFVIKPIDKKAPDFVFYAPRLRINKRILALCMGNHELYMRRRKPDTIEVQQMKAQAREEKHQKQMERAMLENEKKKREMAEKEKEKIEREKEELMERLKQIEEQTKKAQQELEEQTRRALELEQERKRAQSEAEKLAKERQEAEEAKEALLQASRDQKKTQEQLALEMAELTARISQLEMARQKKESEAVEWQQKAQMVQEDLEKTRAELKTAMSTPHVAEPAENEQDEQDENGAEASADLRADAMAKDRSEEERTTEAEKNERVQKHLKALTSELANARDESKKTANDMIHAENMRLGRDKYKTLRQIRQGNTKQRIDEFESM
UniProt P11171: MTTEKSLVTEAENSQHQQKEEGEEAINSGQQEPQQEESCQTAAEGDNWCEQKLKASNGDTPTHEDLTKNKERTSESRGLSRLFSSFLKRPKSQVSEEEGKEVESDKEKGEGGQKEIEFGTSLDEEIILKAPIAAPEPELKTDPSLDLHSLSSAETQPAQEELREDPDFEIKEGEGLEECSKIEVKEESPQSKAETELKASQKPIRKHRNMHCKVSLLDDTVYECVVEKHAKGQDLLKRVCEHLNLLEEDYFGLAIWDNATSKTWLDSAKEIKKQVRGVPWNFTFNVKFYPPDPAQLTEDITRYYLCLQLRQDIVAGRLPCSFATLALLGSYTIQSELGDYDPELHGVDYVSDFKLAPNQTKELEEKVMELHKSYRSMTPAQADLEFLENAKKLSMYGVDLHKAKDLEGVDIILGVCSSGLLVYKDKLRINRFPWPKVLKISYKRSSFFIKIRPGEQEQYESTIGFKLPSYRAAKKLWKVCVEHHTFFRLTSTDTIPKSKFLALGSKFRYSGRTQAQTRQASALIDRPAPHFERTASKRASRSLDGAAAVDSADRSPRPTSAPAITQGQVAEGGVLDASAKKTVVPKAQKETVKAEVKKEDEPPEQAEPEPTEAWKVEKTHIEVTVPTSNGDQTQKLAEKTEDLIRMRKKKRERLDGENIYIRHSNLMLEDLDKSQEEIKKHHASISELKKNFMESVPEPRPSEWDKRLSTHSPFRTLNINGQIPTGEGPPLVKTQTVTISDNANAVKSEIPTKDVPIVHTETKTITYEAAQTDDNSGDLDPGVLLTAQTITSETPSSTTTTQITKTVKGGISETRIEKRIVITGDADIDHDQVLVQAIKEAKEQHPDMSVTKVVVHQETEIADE
UniProt P35241: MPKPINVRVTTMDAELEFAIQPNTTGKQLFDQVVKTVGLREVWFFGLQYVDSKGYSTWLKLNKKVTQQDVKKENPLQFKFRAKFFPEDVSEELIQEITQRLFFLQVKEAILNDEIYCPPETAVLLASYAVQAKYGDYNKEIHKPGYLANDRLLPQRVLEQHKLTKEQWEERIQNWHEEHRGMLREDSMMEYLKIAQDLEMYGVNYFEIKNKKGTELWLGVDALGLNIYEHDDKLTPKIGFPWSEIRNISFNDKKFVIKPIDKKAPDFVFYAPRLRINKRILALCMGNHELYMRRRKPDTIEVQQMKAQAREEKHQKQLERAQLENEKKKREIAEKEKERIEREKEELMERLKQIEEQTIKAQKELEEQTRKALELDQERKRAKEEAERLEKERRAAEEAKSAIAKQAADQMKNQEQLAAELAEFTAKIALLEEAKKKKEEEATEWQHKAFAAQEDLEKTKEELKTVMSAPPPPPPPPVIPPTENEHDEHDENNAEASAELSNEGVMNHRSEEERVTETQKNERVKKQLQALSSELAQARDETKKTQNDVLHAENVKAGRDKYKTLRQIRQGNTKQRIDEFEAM
UniProt P15311: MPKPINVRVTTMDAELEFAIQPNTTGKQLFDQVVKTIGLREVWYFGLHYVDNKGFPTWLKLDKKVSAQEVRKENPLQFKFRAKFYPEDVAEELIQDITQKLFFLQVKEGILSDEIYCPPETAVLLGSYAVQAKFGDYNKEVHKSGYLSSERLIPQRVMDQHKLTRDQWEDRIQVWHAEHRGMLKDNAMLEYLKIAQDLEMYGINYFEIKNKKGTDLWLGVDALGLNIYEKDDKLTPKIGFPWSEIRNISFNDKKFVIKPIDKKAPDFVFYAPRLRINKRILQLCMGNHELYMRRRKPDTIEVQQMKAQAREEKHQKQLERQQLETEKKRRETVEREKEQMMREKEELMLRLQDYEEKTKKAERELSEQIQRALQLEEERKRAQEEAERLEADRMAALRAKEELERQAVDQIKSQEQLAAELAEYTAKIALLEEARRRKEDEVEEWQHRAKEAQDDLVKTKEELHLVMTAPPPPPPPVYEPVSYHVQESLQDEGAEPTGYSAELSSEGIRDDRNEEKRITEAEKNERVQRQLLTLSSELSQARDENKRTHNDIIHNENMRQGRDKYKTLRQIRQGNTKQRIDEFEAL
UniProt O14646: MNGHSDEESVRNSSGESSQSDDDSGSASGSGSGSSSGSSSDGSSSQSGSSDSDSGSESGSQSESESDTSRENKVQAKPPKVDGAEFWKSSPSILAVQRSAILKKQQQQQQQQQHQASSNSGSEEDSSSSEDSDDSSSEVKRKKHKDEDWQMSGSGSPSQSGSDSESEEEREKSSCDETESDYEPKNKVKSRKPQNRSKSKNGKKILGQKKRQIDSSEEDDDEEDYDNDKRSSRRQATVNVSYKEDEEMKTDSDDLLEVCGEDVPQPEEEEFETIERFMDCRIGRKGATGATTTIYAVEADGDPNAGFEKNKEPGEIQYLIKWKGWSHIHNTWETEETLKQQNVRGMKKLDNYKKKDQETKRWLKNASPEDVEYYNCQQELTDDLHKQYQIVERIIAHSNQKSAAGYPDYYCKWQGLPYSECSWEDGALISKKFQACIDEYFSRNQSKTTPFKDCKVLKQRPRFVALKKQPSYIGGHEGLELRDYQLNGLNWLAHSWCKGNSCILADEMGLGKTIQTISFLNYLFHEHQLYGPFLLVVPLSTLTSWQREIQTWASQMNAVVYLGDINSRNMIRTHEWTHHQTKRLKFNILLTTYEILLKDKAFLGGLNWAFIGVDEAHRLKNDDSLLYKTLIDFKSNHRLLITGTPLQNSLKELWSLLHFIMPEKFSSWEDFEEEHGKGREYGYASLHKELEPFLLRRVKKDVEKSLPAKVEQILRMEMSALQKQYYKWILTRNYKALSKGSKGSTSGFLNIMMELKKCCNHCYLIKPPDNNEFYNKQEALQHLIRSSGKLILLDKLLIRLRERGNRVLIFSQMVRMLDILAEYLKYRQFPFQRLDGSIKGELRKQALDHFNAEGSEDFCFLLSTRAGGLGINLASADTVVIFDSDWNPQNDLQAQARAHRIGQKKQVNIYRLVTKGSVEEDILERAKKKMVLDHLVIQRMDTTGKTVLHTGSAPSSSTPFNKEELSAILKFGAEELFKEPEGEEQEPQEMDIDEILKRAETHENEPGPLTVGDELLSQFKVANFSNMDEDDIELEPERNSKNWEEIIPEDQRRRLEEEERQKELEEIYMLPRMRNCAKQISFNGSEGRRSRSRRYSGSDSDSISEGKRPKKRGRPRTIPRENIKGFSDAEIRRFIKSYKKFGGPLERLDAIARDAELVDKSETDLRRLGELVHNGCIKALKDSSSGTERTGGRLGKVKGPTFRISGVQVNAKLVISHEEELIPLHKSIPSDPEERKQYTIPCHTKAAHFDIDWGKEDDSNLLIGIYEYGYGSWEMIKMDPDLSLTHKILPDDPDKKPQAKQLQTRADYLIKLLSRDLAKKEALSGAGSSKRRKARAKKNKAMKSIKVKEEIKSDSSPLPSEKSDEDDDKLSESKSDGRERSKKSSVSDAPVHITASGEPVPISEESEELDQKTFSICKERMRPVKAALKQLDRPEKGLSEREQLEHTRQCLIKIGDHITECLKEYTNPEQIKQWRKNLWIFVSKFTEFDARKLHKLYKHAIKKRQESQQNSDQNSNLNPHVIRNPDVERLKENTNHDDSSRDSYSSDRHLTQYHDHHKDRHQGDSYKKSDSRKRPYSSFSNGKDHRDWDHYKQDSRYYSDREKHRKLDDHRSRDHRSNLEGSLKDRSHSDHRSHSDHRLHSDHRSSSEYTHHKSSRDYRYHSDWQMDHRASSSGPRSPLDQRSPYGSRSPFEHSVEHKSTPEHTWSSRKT
UniProt Q8IZL8: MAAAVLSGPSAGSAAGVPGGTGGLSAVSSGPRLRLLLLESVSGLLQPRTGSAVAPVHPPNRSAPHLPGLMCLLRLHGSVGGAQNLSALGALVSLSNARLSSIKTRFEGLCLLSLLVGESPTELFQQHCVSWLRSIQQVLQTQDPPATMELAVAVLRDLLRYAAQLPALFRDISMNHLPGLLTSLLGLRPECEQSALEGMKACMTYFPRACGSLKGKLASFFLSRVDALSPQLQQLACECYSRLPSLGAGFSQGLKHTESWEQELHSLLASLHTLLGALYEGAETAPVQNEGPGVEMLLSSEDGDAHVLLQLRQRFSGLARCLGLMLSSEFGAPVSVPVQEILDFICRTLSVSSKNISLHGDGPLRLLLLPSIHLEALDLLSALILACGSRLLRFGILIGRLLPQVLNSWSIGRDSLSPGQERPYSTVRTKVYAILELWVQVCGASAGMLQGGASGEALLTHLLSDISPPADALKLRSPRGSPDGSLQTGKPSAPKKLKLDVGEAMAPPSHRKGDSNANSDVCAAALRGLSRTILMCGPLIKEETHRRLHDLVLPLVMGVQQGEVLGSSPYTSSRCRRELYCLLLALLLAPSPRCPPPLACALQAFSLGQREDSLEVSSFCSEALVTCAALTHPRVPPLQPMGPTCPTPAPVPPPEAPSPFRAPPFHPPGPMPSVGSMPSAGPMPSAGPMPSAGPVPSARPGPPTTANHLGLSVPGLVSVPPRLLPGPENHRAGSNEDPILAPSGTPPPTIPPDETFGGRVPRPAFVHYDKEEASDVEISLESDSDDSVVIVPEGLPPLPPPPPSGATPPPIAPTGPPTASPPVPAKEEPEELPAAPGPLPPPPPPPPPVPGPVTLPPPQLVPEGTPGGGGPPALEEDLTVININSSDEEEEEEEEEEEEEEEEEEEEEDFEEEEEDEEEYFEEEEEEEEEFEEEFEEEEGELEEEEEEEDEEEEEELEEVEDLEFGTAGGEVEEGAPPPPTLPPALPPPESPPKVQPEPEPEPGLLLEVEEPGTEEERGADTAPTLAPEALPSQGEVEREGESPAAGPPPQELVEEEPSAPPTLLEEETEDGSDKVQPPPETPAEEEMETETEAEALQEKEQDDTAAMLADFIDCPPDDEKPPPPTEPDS

What was measured:
[1] = biological target: Merlin (human (endogenous in IOMM-Lee)) (UniProt P35240); assay: co-IP; IP of endogenous Merlin or control antibody from IOMM-Lee meningioma cells; endogenous proteins by Western blot
[2] = biological target: recombinant GST-Merlin FERM domain (UniProt P35240); assay: pull-down; 'fishing': recombinant GST-Merlin proteins from Sf9 on Glutathione Sepharose beads (10 μl) added to cell lysates for 2 h, washed, eluted with LDS sample buffer; Western blot; only the target purified
Flag-Moesin = Flag-Moesin (UniProt P26038); assay: co-IP; Flag-tagged proteins transfected in HEK293T; lysis in PBS-E LB (1% TX100); Flag (M2) agarose IP; endogenous proteins by Western blot; in some panels after siRNA knock-downs or in dense or sparse cells
[3] = biological target: Flag-erythrocyte membrane protein band 4.1 (EPB41) (UniProt P11171); assay: as above
Flag-Radixin = Flag-Radixin (UniProt P35241); assay: as above
Flag-Ezrin = Flag-Ezrin (UniProt P15311); assay: as above
Flag-Merlin isoform 1 = Flag-Merlin isoform 1 (UniProt P35240); assay: as above

binding [1]	binding [2]	binding (Flag-Moesin)	binding [3]	binding (Flag-Radixin)	binding (Flag-Ezrin)	binding (Flag-Merlin isoform 1)	Substance
binds	binds	no binding	no binding	no binding	no binding	binds	CHD1 (from UniProt O14646 1-1710)
–	–	no binding	no binding	no binding	no binding	binds	PELP1 (from UniProt Q8IZL8 1-1130)
binds	binds	–	–	–	–	–	VPRBP (from UniProt Q9Y4B6 1-1507)
